Source: paper PMC6919601, “Identification of Plasmodium dipeptidyl aminopeptidase allosteric inhibitors by high throughput screening” (PLoS ONE, 2019)
The campaign covered roughly 110,000 compounds. About 230 (0.21%) showed an effect of 50% or more. Some of the results follow.

These compounds were tested against DPAP1 (Plasmodium falciparum, UniProt Q8IIJ9) (assay: primary screen, percent inhibition; read by cleavage of a fluorogenic dipeptide substrate; higher = more effect of the substance).
Set-up: species or system P. falciparum D10 trophozoite lysates; single well
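Further: 30 min substrate incubation versus DMSO and 10 µM JCP410 controls.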

Sequence of DPAP1 (Q8IIJ9 whole entry, looked up): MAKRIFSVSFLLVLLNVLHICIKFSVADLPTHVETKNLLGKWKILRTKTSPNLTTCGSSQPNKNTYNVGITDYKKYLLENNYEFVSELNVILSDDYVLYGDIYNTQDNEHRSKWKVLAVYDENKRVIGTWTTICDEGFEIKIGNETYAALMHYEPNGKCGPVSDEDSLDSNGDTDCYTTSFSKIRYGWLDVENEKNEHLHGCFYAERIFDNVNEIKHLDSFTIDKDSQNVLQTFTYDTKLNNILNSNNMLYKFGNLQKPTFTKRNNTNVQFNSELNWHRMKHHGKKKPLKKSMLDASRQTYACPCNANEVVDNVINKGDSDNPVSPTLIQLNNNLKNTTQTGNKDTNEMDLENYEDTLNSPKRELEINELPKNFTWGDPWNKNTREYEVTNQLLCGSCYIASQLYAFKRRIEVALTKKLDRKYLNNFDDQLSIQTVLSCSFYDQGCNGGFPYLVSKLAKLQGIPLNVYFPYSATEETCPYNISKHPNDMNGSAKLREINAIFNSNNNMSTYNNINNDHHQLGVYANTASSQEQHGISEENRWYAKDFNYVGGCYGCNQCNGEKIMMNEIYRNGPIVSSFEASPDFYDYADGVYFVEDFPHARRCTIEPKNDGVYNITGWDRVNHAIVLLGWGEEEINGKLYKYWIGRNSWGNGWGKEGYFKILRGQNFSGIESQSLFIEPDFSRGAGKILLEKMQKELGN

| Compound | % Inhibition @ 10 uM [%] |
| --- | --- |
| COc1cccc(-c2[nH]nc3c2C(c2ccc(O)cc2)NC3=O)c1 (centres unmarked) | -3.35 |
| Cc1c(C(=O)NCc2ccc3c(c2)OCO3)oc2ccc3c(c12)C=CC(C)(C)O3 | 5.2 |
| Cc1n[nH]c(SCC(=O)Nc2ncccn2)n1 | -1.68 |
| O=C(/C=C/c1ccc(-c2cccc([N+](=O)[O-])c2)o1)c1ccccc1 | 2.76 |
| Cc1ccc(-c2c(NCCCN3CCN(C4CCCCC4)CC3)c(=O)c2=O)cc1C | 1.97 |
| CCOc1ccccc1C1C(C(=O)Nc2ccc(F)cc2)=C(C)Nc2ncnn21 (centres unmarked) | -9.02 |
| CCCSc1nnc2c(n1)OC(c1ccc(C(C)C)cc1)Nc1ccccc1-2 (centres unmarked) | 3.61 |
| CCC(C)(C)C1CCc2nc3sc(C(=O)Nc4ccccc4C(N)=O)c(N)c3cc2C1 (centres unmarked) | -6.27 |
| CC1CCN(CC(O)Cn2c3ccc(Cl)cc3c3cc(Cl)ccc32)CC1 (centres unmarked) | 3.01 |
| Cc1nn(CC(=O)NCc2ccc(OC(C)C)cc2)c(=O)c2cc3cc(F)ccc3n12 | 1.68 |
| CC(Oc1ccc(Cl)cc1Cl)C(=O)Nc1cccc(C#N)c1 (centres unmarked) | -1.04 |
| CCOC(=O)c1oc2ccc(S(=O)(=O)Nc3c(O)oc4ccccc4c3=O)cc2c1C | 5.9 |
| CC1CC(C)CN(Cc2nc3c(c(=O)n(C)c(=O)n3C)n2CCCc2ccccc2)C1 (centres unmarked) | -5.1 |
| CC(C)(CO)Nc1nc(Cl)nc(N2CCOCC2)n1 | 5.48 |
| CN(Cc1ccco1)C(=O)C1CCC(CNS(=O)(=O)c2ccc(Cl)cc2)CC1 (centres unmarked) | -4.53 |
| Cc1ccc(NC(=O)C2=C(O)CCn3c2nc2ccccc23)cc1 | -2.55 |
| CC(C)C(=O)Nc1c2c(nc3c1CCC3)CCCC2 | 0.345 |
| Cc1cc(C)c2c(CC(=O)Nc3nc(C)c(C(=O)OCC(C)C)s3)coc2c1 | 2.62 |
| CCOc1ccc2oc(=O)cc(CN3CCN(c4ncccn4)CC3)c2c1 | -1.71 |
| COc1ccc2[nH]c(C)c(CCN3C(=O)OC4(CCCCC4)C3(C)O)c2c1 (centres unmarked) | -0.25 |
| Clc1ccccc1/C=C/c1nn2c(-c3ccco3)nnc2s1 | -1.31 |
| CC(C)(C)N1C(=O)NC(=O)/C(=C\c2c(Cl)cccc2Cl)C1=O | 11.8 |
| COc1ccc(C2NC(=O)C(C#N)=C(S)N2c2ccccc2)cc1 (centres unmarked) | 5.18 |
| Cc1ccc(-c2cnc3ccccc3n2)c(C)c1 | 1.9 |
| CCN(CC)C(=O)c1sc(NC(=O)c2c(-c3ccccc3)noc2C)c(C#N)c1C | -3.26 |

| Compound | % Inhibition @ 10 uM [%] |
| --- | --- |
| CC(=O)c1cccc(NC(=O)C2C3CC/C=C\CC/C=C/CCC32)c1 (centres unmarked) | 4.96 |
| COc1ccc(C2(C(=O)Nc3ccc(OC)cc3OC)CCCC2)cc1 | 3.29 |
| CCc1ccc(-c2nc(CSCC(=O)NCc3ccccc3Cl)c(C)o2)cc1 | 3.99 |
| Cc1cccc(C(=O)N2CCN(c3ccc([N+](=O)[O-])cc3)CC2)c1 | -5.5 |
| CCCCc1ccc(CC2[Se]C(N)=NC2=O)cc1 (centres unmarked) | 5.88 |
| Cc1ccc(/C=C2\SC(N3CCOCC3)=NC2=O)o1 | -1.6 |
| CC(NC(=O)C1CCCN(S(=O)(=O)N(C)C2CCCCC2)C1)c1ccc2c(c1)OCCO2 (centres unmarked) | -1.67 |
| CC(C)(C)c1cc(C(F)(F)F)n2ncc(-c3ccccc3)c2n1 | 0.275 |
| COc1ccc(N2C(=O)c3ccc(C)cc3C2=O)c(OC)c1 | 1.62 |
| O=C(CSc1nc2c(c(=O)n1Cc1ccccc1)SCC2)NC1CCCC1 | 5.8 |
| CCOCCCNC(=O)C(c1ccccc1)N(Cc1ccc2c(c1)OCO2)C(=O)c1ccccc1O (centres unmarked) | -0.363 |
| CC1(C)CC(NC(=O)c2cc3cc(Br)ccc3oc2=O)CC(C)(C)N1 | 2.18 |
| CCc1ccc(OCC(=O)N2CCc3ccccc32)c(Br)c1 | 4.22 |
| COc1ccc2c(c1)-c1nc(NC(=O)c3cccc(Cl)c3)sc1CC2 | -0.0735 |
| COc1ccc2cc(C(=O)N3CCOCC3)sc(=O)c2c1OC | -0.884 |
| Cc1ccc(C2N[C@@H](C(=O)O)C(C)(C)S2)cc1 (some centres unmarked) | -8.58 |
| CC1=C(C(=O)OCC(C)C)C(c2ccccc2F)NC(=O)N1 (centres unmarked) | 1.83 |
| CCOc1ccc(-c2nonc2NC(=O)c2oc3ccc(C)cc3c2C)cc1 | 6.89 |
| Cc1ccc(OCC(O)CN2CCn3c4c(c5cc(C)ccc53)CCCC42)cc1 (centres unmarked) | 2.91 |
| Cc1nc2c(c(C)nn2C(C)(C)C)c(C)c1CCC(=O)N1CCCCCC1 | -8.02 |
| COc1ccc(C2Nn3c(C)nnc3SC2C(=O)NCc2ccco2)cc1 (centres unmarked) | 1.72 |
| Cc1nn(C(=O)c2cccs2)c(C)c1Sc1ccccc1 | 10.6 |
| CCOc1ccc(/C=C(\C#N)c2nc(-c3ccc(C)cc3C)cs2)cc1 | 0.912 |
| COc1ccc2c(c1)C1=NN(/C(C)=C/C(C)=O)C(c3cccc([N+](=O)[O-])c3)C1CC2 (centres unmarked) | 23.7 |
| O=c1oc2ccc(Br)cc2cc1-c1ccccc1 | -0.969 |
